# Measured values published in the supplement of paper PMC8728848.
# The other results are listed elsewhere or left out.
# B1: PX9937B-bvu-524-33-524 (Bacteroides vulgatus) (protein)
# chain: GTAYWKNPDQFTAFNTGLHALLREKSYNFFLLGEPRADIYGDNPIGGEASQGMERLPFNTINKENVGISNYGDMYKIINQINQMIAKTTETTILTEATQNYYLGEAYGMRAYLYFHLLRSWGDVVLYLDYTEGQNLDLSNITKGVSPATEVMEQIKKDIQASENAFGSDYSFKLGRHFWSAAATQMLKGEAYLWSGRQMNGGNSDYTIAKNAFENVKKADVGLVTSSFKDIFSFENKKNKEMIFTIHNGKDEYEMWGGYYRMRLIPAQDKMVKIYCDENGNSFVGTPDAQLNGLTQLQVRREFYFKGFRNNDTRWTTSLKAVYKKDAQGVVSYFGPITYKFQGTMLEGGSTRSFLDDFPIYRYADCLLQLAMAKVLLGEDPTEEINAVRERAYGSKYFNEHKAEIAYPNDNDPEFYTDNKWMKPDNAGALEAILKERLREFMFEGKRWYDIRLLGWDYVHQYSSAEQSRLLWPIDAGTLTNNSALKQTPGYE
# Assays:
# Experiment in all cases: glycan array binding signal (z-score within array); higher = stronger binding
# Conditions in all cases: glycan notation: IUPAC condensed, linker removed
# [1] = target: Neu5Ac(a2-6)GlcNAc(b1-4)GlcNAc(b1-4)GlcNAc
# Outline: (§1)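 The binding signal is a Z-score computed within each array. Data were drawn from 3228 arrays in the Consortium for Functional Glycomics database, restricted to those with a known protein sequence. Scores were averaged over arrays of the same protein sequence at different concentrations or buffers, and over linkers, and negative values can be taken as non-binding.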
# Neu5Ac(a2-8)Neu5Ac = target: Neu5Ac(a2-8)Neu5Ac
# Outline: as §1
# [2] = target: Neu5Ac(a2-8)Neu5Ac(a2-3)Gal(b1-3)GalNAc(b1-4)[Neu5Ac(a2-3)]Gal(b1-4)Glc
# Outline: as §1
# [3] = target: Neu5Ac(a2-8)Neu5Ac(a2-3)Gal(b1-3)GalNAc(b1-4)[Neu5Ac(a2-8)Neu5Ac(a2-3)]Gal(b1-4)Glc
# Outline: as §1
# [4] = target: Neu5Ac(a2-8)Neu5Ac(a2-3)Gal(b1-4)Glc
# Outline: as §1
# [5] = target: Neu5Ac(a2-8)Neu5Ac(a2-3)Gal(b1-4)GlcNAc
# Outline: as §1
# [6] = target: Neu5Ac(a2-8)Neu5Ac(a2-3)[Gal(b1-3)GalNAc(b1-4)]Gal(b1-4)Glc
# Outline: as §1
# [7] = target: Neu5Ac(a2-8)Neu5Ac(a2-3)[GalNAc(b1-4)]Gal(b1-4)Glc
# Outline: as §1
# [8] = target: Neu5Ac(a2-8)Neu5Ac(a2-8)Neu5Ac
# Outline: as §1
# [9] = target: Neu5Ac(a2-8)Neu5Ac(a2-8)Neu5Ac(a2-3)Gal(b1-4)Glc
# Outline: as §1
# [10] = target: Neu5Ac(a2-8)Neu5Ac(a2-8)Neu5Ac(a2-3)[Gal(b1-3)GalNAc(b1-4)]Gal(b1-4)Glc
# Outline: as §1
# [11] = target: Neu5Ac(a2-8)Neu5Ac(a2-8)Neu5Ac(a2-3)[GalNAc(b1-4)]Gal(b1-4)Glc
# Outline: as §1
# [12] = target: Neu5Ac(a2-8)Neu5Ac(a2-8)Neu5Ac(a2-8)Neu5Ac(a2-3)[GalNAc(b1-4)]Gal(b1-4)Glc
# Outline: as §1
# [13] = target: Neu5Ac(a2-8)Neu5Gc(a2-3)Gal(b1-4)GlcNAc
# Outline: as §1
# [14] = target: Neu5Ac(b2-6)Gal(b1-4)GlcNAc
# Outline: as §1
# Neu5Ac(b2-6)GalNAc = target: Neu5Ac(b2-6)GalNAc
# Outline: as §1
# [15] = target: Neu5Ac9Ac(a2-3)Gal(b1-3)GlcNAc
# Outline: as §1
# [16] = target: Neu5Ac9Ac(a2-3)Gal(b1-4)GlcNAc
# Outline: as §1
# [17] = target: Neu5Ac9Ac(a2-6)Gal(b1-4)GlcNAc
# Outline: as §1
# [18] = target: Neu5Gc(a2-3)Gal(b1-3)GlcNAc
# Outline: as §1
# [19] = target: Neu5Gc(a2-3)Gal(b1-3)[Fuc(a1-4)]GlcNAc
# Outline: as §1
# Neu5Gc(a2-3)Gal(b1-4)Glc = target: Neu5Gc(a2-3)Gal(b1-4)Glc
# Outline: as §1
# [20] = target: Neu5Gc(a2-3)Gal(b1-4)GlcNAc
# Outline: as §1
# [21] = target: Neu5Gc(a2-3)Gal(b1-4)GlcNAc(b1-3)Gal(b1-4)GlcNAc(b1-2)Man(a1-3)[Neu5Gc(a2-3)Gal(b1-4)GlcNAc(b1-3)Gal(b1-4)GlcNAc(b1-2)Man(a1-6)]Man(b1-4)GlcNAc(b1-4)GlcNAc
# Outline: as §1
# [22] = target: Neu5Gc(a2-3)Gal(b1-4)[Fuc(a1-3)]GlcNAc
# Outline: as §1
# [23] = target: Neu5Gc(a2-6)Gal(b1-4)GlcNAc
# Outline: as §1
# Neu5Gc(a2-6)GalNAc = target: Neu5Gc(a2-6)GalNAc
# Outline: as §1
# [24] = target: Neu5Gc(a2-8)Neu5Ac(a2-3)Gal(b1-4)GlcNAc
# Outline: as §1
# [25] = target: Neu5Gc(a2-8)Neu5Gc(a2-3)Gal(b1-4)GlcNAc
# Outline: as §1
# [26] = target: Neu5Gc(a2-8)Neu5Gc(a2-3)Gal(b1-4)GlcNAc(b1-3)Gal(b1-4)GlcNAc
# Outline: as §1
# [27] = target: Neu5Gc(a2-8)Neu5Gc(a2-6)Gal(b1-4)GlcNAc
# Outline: as §1
# [28] = target: Neu5Gc(b2-6)Gal(b1-4)GlcNAc
# Outline: as §1
binder,measurement,setting,value
B1,glycan array binding signal (z-score),[1],-0.108
same,glycan array binding signal (z-score),Neu5Ac(a2-8)Neu5Ac,-0.053
same,glycan array binding signal (z-score),[2],-0.039
same,glycan array binding signal (z-score),[3],-0.231
same,glycan array binding signal (z-score),[4],-0.268
same,glycan array binding signal (z-score),[5],-0.154
same,glycan array binding signal (z-score),[6],-0.453
same,glycan array binding signal (z-score),[7],-0.327
same,glycan array binding signal (z-score),[8],-0.038
same,glycan array binding signal (z-score),[9],-0.414
same,glycan array binding signal (z-score),[10],-0.321
same,glycan array binding signal (z-score),[11],-0.379
same,glycan array binding signal (z-score),[12],-0.281
same,glycan array binding signal (z-score),[13],5.74
same,glycan array binding signal (z-score),[14],-0.405
same,glycan array binding signal (z-score),Neu5Ac(b2-6)GalNAc,-0.36
same,glycan array binding signal (z-score),[15],-0.172
same,glycan array binding signal (z-score),[16],-0.145
same,glycan array binding signal (z-score),[17],0.213
same,glycan array binding signal (z-score),[18],0.806
same,glycan array binding signal (z-score),[19],-0.316
same,glycan array binding signal (z-score),Neu5Gc(a2-3)Gal(b1-4)Glc,0.188
same,glycan array binding signal (z-score),[20],-0.328
same,glycan array binding signal (z-score),[21],0.18
same,glycan array binding signal (z-score),[22],-0.39
same,glycan array binding signal (z-score),[23],0.039
same,glycan array binding signal (z-score),Neu5Gc(a2-6)GalNAc,0.029
same,glycan array binding signal (z-score),[24],-0.104
same,glycan array binding signal (z-score),[25],-0.304
same,glycan array binding signal (z-score),[26],-0.194
same,glycan array binding signal (z-score),[27],-0.344
same,glycan array binding signal (z-score),[28],-0.009
